This is one part of the list.
Experiments:
Assay in all cases: glycan array binding signal (z-score within array); higher = stronger binding
Settings in all cases: glycan notation: IUPAC condensed, linker removed
[1] = target: GlcNAc(b1-4)GlcNAc(b1-4)GlcNAc(b1-4)GlcNAc(b1-4)GlcNAc
How it was run: (§1)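 From the Consortium for Functional Glycomics database, 3228 arrays were curated, keeping only those whose protein sequence was available. Binding is given as a within-array Z-score averaged across arrays sharing a protein sequence and across linkers. Negative Z-scores can be read as non-binding.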

[2] = target: GlcNAc(b1-4)GlcNAc(b1-4)GlcNAc(b1-4)GlcNAc(b1-4)GlcNAc(b1-4)GlcNAc
How it was run: as §1

[3] = target: GlcNAc(b1-4)[GlcNAc(b1-6)]GalNAc
How it was run: as §1

[4] = target: GlcNAc(b1-6)Gal(b1-4)GlcNAc
How it was run: as §1

GlcNAc(b1-6)GalNAc = target: GlcNAc(b1-6)GalNAc
How it was run: as §1

[5] = target: GlcNAc6S(b1-3)Gal(b1-4)GlcNAc
How it was run: as §1

Kdn(a2-3)Gal(b1-3)GalNAc = target: Kdn(a2-3)Gal(b1-3)GalNAc
How it was run: as §1

Kdn(a2-3)Gal(b1-3)GlcNAc = target: Kdn(a2-3)Gal(b1-3)GlcNAc
How it was run: as §1

Kdn(a2-3)Gal(b1-4)Glc = target: Kdn(a2-3)Gal(b1-4)Glc
How it was run: as §1

Kdn(a2-3)Gal(b1-4)GlcNAc = target: Kdn(a2-3)Gal(b1-4)GlcNAc
How it was run: as §1

[6] = target: Kdn(a2-3)Gal(b1-4)[Fuc(a1-3)]GlcNAc
How it was run: as §1

Kdn(a2-6)Gal(b1-4)GlcNAc = target: Kdn(a2-6)Gal(b1-4)GlcNAc
How it was run: as §1

[7] = target: Man(a1-2)Man(a1-2)Man(a1-3)Man
How it was run: as §1

[8] = target: Man(a1-2)Man(a1-2)Man(a1-6)[Man(a1-3)]Man
How it was run: as §1

Man(a1-2)Man(a1-3)Man = target: Man(a1-2)Man(a1-3)Man
How it was run: as §1

[9] = target: Man(a1-2)Man(a1-3)[Man(a1-2)Man(a1-6)]Man
How it was run: as §1

[10] = target: Man(a1-2)Man(a1-3)[Man(a1-2)Man(a1-6)]Man(a1-6)[Man(a1-2)Man(a1-2)Man(a1-3)]Man
How it was run: as §1

[11] = target: Man(a1-2)Man(a1-3)[Man(a1-2)Man(a1-6)]Man(a1-6)[Man(a1-2)Man(a1-2)Man(a1-3)]Man(b1-4)GlcNAc(b1-4)GlcNAc
How it was run: as §1

[12] = target: Man(a1-2)Man(a1-3)[Man(a1-6)]Man(a1-6)[Man(a1-2)Man(a1-3)]Man(b1-4)GlcNAc(b1-4)GlcNAc
How it was run: as §1

[13] = target: Man(a1-2)Man(a1-6)[Man(a1-3)]Man(a1-6)[Man(a1-2)Man(a1-2)Man(a1-3)]Man
How it was run: as §1

[14] = target: Man(a1-2)Man(a1-6)[Man(a1-3)]Man(a1-6)[Man(a1-2)Man(a1-2)Man(a1-3)]Man(b1-4)GlcNAc(b1-4)GlcNAc
How it was run: as §1

Man(a1-3)[Man(a1-6)]Man = target: Man(a1-3)[Man(a1-6)]Man
How it was run: as §1

[15] = target: Man(a1-3)[Man(a1-6)]Man(a1-6)[Man(a1-2)Man(a1-3)]Man(b1-4)GlcNAc(b1-4)GlcNAc
How it was run: as §1

[16] = target: Man(a1-3)[Man(a1-6)]Man(a1-6)[Man(a1-3)]Man
How it was run: as §1

[17] = target: Man(a1-3)[Man(a1-6)]Man(a1-6)[Man(a1-3)]Man(b1-4)GlcNAc(b1-4)GlcNAc
How it was run: as §1

[18] = target: Man(a1-3)[Man(a1-6)]Man(b1-4)GlcNAc(b1-4)GlcNAc
How it was run: as §1

[19] = target: Man(a1-3)[Man(a1-6)]Man(b1-4)GlcNAc(b1-4)[Fuc(a1-6)]GlcNAc
How it was run: as §1

Man(a1-6)Man = target: Man(a1-6)Man
How it was run: as §1

Man(b1-4)GlcNAc = target: Man(b1-4)GlcNAc
How it was run: as §1

MurNAc(b1-4)GlcNAc = target: MurNAc(b1-4)GlcNAc
How it was run: as §1

Neu5Ac(a2-3)Gal = target: Neu5Ac(a2-3)Gal
How it was run: as §1

[20] = target: Neu5Ac(a2-3)Gal(b1-3)GalNAc
How it was run: as §1

[21] = target: Neu5Ac(a2-3)Gal(b1-3)GalNAc(b1-3)Gal(a1-4)Gal(b1-4)Glc
How it was run: as §1

[22] = target: Neu5Ac(a2-3)Gal(b1-3)GalNAc(b1-4)Gal(b1-4)Glc
How it was run: as §1

[23] = target: Neu5Ac(a2-3)Gal(b1-3)GalNAc(b1-4)[Neu5Ac(a2-3)]Gal(b1-4)Glc
How it was run: as §1

[24] = target: Neu5Ac(a2-3)Gal(b1-3)GalNAc(b1-4)[Neu5Ac(a2-8)Neu5Ac(a2-3)]Gal(b1-4)Glc
How it was run: as §1

[25] = target: Neu5Ac(a2-3)Gal(b1-3)GalNAc6S
How it was run: as §1

[26] = target: Neu5Ac(a2-3)Gal(b1-3)GlcNAc
How it was run: as §1

[27] = target: Neu5Ac(a2-3)Gal(b1-3)GlcNAc(b1-2)Man
How it was run: as §1

[28] = target: Neu5Ac(a2-3)Gal(b1-3)GlcNAc(b1-2)Man(a1-3)[GlcNAc(b1-4)][Neu5Ac(a2-3)Gal(b1-3)GlcNAc(b1-2)Man(a1-6)]Man(b1-4)GlcNAc(b1-4)GlcNAc
How it was run: as §1

[29] = target: Neu5Ac(a2-3)Gal(b1-3)GlcNAc(b1-2)Man(a1-3)[Neu5Ac(a2-3)Gal(b1-3)GlcNAc(b1-2)Man(a1-6)]Man(b1-4)GlcNAc(b1-4)GlcNAc
How it was run: as §1

[30] = target: Neu5Ac(a2-3)Gal(b1-3)GlcNAc(b1-2)[Neu5Ac(a2-3)Gal(b1-3)GlcNAc(b1-4)]Man(a1-6)[Neu5Ac(a2-3)Gal(b1-3)GlcNAc(b1-2)Man(a1-3)]Man(b1-4)GlcNAc(b1-4)GlcNAc
How it was run: as §1

[31] = target: Neu5Ac(a2-3)Gal(b1-3)GlcNAc(b1-3)Gal(b1-3)GlcNAc
How it was run: as §1

[32] = target: Neu5Ac(a2-3)Gal(b1-3)GlcNAc(b1-3)Gal(b1-4)GlcNAc
How it was run: as §1

[33] = target: Neu5Ac(a2-3)Gal(b1-3)GlcNAc(b1-3)GalNAc
How it was run: as §1

B1: Sebin1 (Coprinopsis cinerea), A8PEE3 (protein)
chain: MTSPFYAHIHNVQDDNTWRFTLIFANRATADEWWRAISEAPANTSIAKSITRVTPQYYTHDVNIWNIWNFFADGNIKSISERFRGRLFIVLENDRGGRGITVIPPVPIVDHVSGNWFYIRSKTAPHLFWYYDERRSSIYASKEKRTRFKISIRNPSSQTPKNAIMINTDDVTIHIKENLYVGVDNNLGHIIPTRAYRTFKFGELESGAIAGFDVVENIEERCSSTFDGASLSISGPDSSSPGEPWELV
**Q.** Which results are given for B1?
**A.** glycan array binding signal (z-score) [1]: -0.511; glycan array binding signal (z-score) [2]: -0.27; glycan array binding signal (z-score) [3]: -0.714; glycan array binding signal (z-score) [4]: -0.379; glycan array binding signal (z-score) (GlcNAc(b1-6)GalNAc): 0.715; glycan array binding signal (z-score) [5]: -0.801; glycan array binding signal (z-score) (Kdn(a2-3)Gal(b1-3)GalNAc): -0.271; glycan array binding signal (z-score) (Kdn(a2-3)Gal(b1-3)GlcNAc): -0.434; glycan array binding signal (z-score) (Kdn(a2-3)Gal(b1-4)Glc): 0.514; glycan array binding signal (z-score) (Kdn(a2-3)Gal(b1-4)GlcNAc): -0.558; glycan array binding signal (z-score) [6]: 1.4; glycan array binding signal (z-score) (Kdn(a2-6)Gal(b1-4)GlcNAc): -0.282; glycan array binding signal (z-score) [7]: -0.328; glycan array binding signal (z-score) [8]: -0.075; glycan array binding signal (z-score) (Man(a1-2)Man(a1-3)Man): -0.17; glycan array binding signal (z-score) [9]: -0.36; glycan array binding signal (z-score) [10]: -0.458; glycan array binding signal (z-score) [11]: -0.238; glycan array binding signal (z-score) [12]: -0.418; glycan array binding signal (z-score) [13]: -0.2; glycan array binding signal (z-score) [14]: 1; glycan array binding signal (z-score) (Man(a1-3)[Man(a1-6)]Man): -0.525; glycan array binding signal (z-score) [15]: 0.008; glycan array binding signal (z-score) [16]: -0.935; glycan array binding signal (z-score) [17]: 0.211; glycan array binding signal (z-score) [18]: -0.029; glycan array binding signal (z-score) [19]: -0.075; glycan array binding signal (z-score) (Man(a1-6)Man): -0.093; glycan array binding signal (z-score) (Man(b1-4)GlcNAc): -0.49; glycan array binding signal (z-score) (MurNAc(b1-4)GlcNAc): -0.492; glycan array binding signal (z-score) (Neu5Ac(a2-3)Gal): -0.637; glycan array binding signal (z-score) [20]: 2.37; glycan array binding signal (z-score) [21]: -0.384; glycan array binding signal (z-score) [22]: -0.297; glycan array binding signal (z-score) [23]: -0.154; glycan array binding signal (z-score) [24]: -0.281; glycan array binding signal (z-score) [25]: -0.573; glycan array binding signal (z-score) [26]: -0.465; glycan array binding signal (z-score) [27]: -0.255; glycan array binding signal (z-score) [28]: 0.037; glycan array binding signal (z-score) [29]: -0.405; glycan array binding signal (z-score) [30]: -0.386; glycan array binding signal (z-score) [31]: -0.585; glycan array binding signal (z-score) [32]: 0; glycan array binding signal (z-score) [33]: 0.3

Reference: the supplement of paper PMC8728848
